According to the supplement of paper PMC12578646, “Prodrug florfenicol amine is activated by intrinsic resistance to target Mycobacterium abscessus” (Nature Microbiology, 2025):
M. abscessus ATCC 19977 and its deletion, point and complemented mutants after 5 days of drug at 37 °C plus 24 h of resazurin. Growth in % of untreated wells at the dose given (lower = more inhibition); checkerboards give % inhibition (higher = more inhibition); IC50 from the fitted curve (lower = more potent). No active / inactive call. IC50 values come from the same 384-well curves. Growth is not capped and can exceed 100%. The direction of the checkerboard scale is read from the raw signals. Capreomycin is a mixture.

Experiments:
[1] = system: Mycobacterium abscessus ATCC 19977 ΔwhiB7; assay: growth relative to untreated wells; higher = more growth (less inhibition)
Method: (§1)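 384-well two-fold dose series, two replicates; 5 days at 37 °C, then 24 h with resazurin; fluorescence scaled to growth and killed controls.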

[2] = system: Mycobacterium abscessus ATCC 19977 WhiB7 R76del; assay: as above
Method: as §1

[3] = system: Mycobacterium abscessus ATCC 19977; assay: as above
Method: as §1

[4] = system: Mycobacterium abscessus ATCC 19977 Eis2 T258R; assay: as above
Method: as §1

[5] = system: Mycobacterium abscessus ATCC 19977 ΔwhiB7; assay: growth relative to untreated wells; higher = more growth
Method: (§2)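 Two-fold dose series, three replicates; 5 days at 37 °C, then 24 h with resazurin; fluorescence scaled to growth and killed controls.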

[6] = system: Mycobacterium abscessus ATCC 19977; assay: as above
Method: as §2

[7] = system: Mycobacterium abscessus ATCC 19977 Δcat; assay: as above
Method: as §2

[8] = system: Mycobacterium abscessus ATCC 19977; assay: growth inhibition; higher = more inhibition
Method: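 384-well checkerboard, three replicates; 5 days at 37 °C, then 24 h with resazurin; fluorescence scaled to growth and killed controls.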

NCC[C@H](O)C(=O)N[C@@H]1C[C@H](N)[C@@H](O[C@H]2O[C@H](CN)[C@@H](O)[C@H](O)[C@H]2O)[C@H](O)[C@H]1O[C@H]1O[C@H](CO)[C@@H](O)[C@H](N)[C@H]1O [amikacin]
growth [%]
Settings	[1]	[2]	[3]	[4]
0.03125 µg/mL	111	102	108	103
0.0625 µg/mL	114	117	115	112
0.125 µg/mL	153.3	111	116	119
0.25 µg/mL	52.1	112	122.6	116
0.5 µg/mL	-2.82	-0.908	124	-0.893
1 µg/mL	-3.31	-1.29	56.7	-1.65
2 µg/mL	-3.62	2.15	-0.405	4.88
4 µg/mL	0.603	-1.59	-1.13	-2.18
8 µg/mL	-2.92	-1.51	-1.56	-2.55
16 µg/mL	-3.51	-1.43	-0.994	-1.79
32 µg/mL	-2.78	-0.899	-0.0558	-1.72
64 µg/mL	-1.56	0.539	0.809	-0.584

CC[C@H]1OC(=O)[C@H](C)[C@@H](O[C@H]2C[C@@](C)(OC)[C@@H](O)[C@H](C)O2)[C@H](C)[C@@H](O[C@@H]2O[C@H](C)C[C@H](N(C)C)[C@H]2O)[C@](C)(O)C[C@@H](C)CN(C)[C@H](C)[C@@H](O)[C@]1(C)O [azithromycin]
growth [%]
Settings	[1]	[2]	[3]	[4]
0.03125 µg/mL	93.9	92	101	100
0.0625 µg/mL	114	104	110	108
0.125 µg/mL	122.32	112.3	121	115
0.25 µg/mL	107	105	97	107
0.5 µg/mL	41.9	43.6	37.4	63
1 µg/mL	5.29	0.889	7.92	8.899
2 µg/mL	-2.85	-1.93	1.8	2.74
4 µg/mL	-5.14	-3	-0.0144	-1.93
8 µg/mL	-5.35	-2.25	-1.68	-1.3
16 µg/mL	-4.77	-2.73	-1.59	-2.8
32 µg/mL	-4.48	-2.08	-2	-2.24
64 µg/mL	-4.07	-1.64	4.26	-1.87

CO[C@@]1(NC(=O)Cc2cccs2)C(=O)N2C(C(=O)O)=C(COC(N)=O)CS[C@@H]21 [cefoxitin]
growth [%]
Settings	[1]	[2]	[3]	[4]
0.5 µg/mL	90.6	103	101.2	87.6
1 µg/mL	102	115	110	103
2 µg/mL	103	102	96.8	99.5
4 µg/mL	106.2	114	114	110
8 µg/mL	114.7	129	123	125
16 µg/mL	47.2	5.49	24.6	12.9
32 µg/mL	-0.915	-4.59	50.6	-5.76
64 µg/mL	-9.58	-7.42	-6.47	-7.078
128 µg/mL	-8.92	-5.69	-7.723	5.19
256 µg/mL	-9.85	-7.03	-7.06	-7.66
512 µg/mL	-7.86	-5.4	-5.88	-5.915
1024 µg/mL	-2.91	-0.564	-0.901	-1.41

O=C(N[C@H](CO)[C@H](O)c1ccc([N+](=O)[O-])cc1)C(Cl)Cl [chloramphenicol]
growth [%]
Settings	[1]	[2]	[3]	[4]	[5]	[6]	[7]
0.5 µg/mL	91	95.8	99.3	98.56	–	–	–
1 µg/mL	97.7	102	105	94	98	95.3	96.6
2 µg/mL	97.7	106	99.96	99.41	104	94.6	103
4 µg/mL	118	111.3	109	106	107	107	102
8 µg/mL	119	119.9	106	105.1	110	99.6	91.9
16 µg/mL	84.6	75.1	110	110	114	115	72.2
32 µg/mL	47.1	26.5	109	108	105	112	49.3
64 µg/mL	15.7	6.44	89.9	87.5	75.9	112	6.65
128 µg/mL	1.73	-0.757	62.8	64.3	9.35	115	0.934
256 µg/mL	-3.73	-2.71	15.3	9.42	2.64	94	-0.778
512 µg/mL	-4.45	-2.92	6.67	3.66	3.44	20.2	0.377
1024 µg/mL	-5.33	-2.76	-2.09	-3.03	–	–	–

CC[C@H]1OC(=O)[C@H](C)[C@@H](O[C@H]2C[C@@](C)(OC)[C@@H](O)[C@H](C)O2)[C@H](C)[C@@H](O[C@@H]2O[C@H](C)C[C@H](N(C)C)[C@H]2O)[C@](C)(OC)C[C@@H](C)C(=O)[C@H](C)[C@@H](O)[C@]1(C)O [clarithromycin]
growth [%]
Settings	[1]	[2]	[3]	[4]
0.03125 µg/mL	120	122	122.13	120
0.0625 µg/mL	53.1	45.1	51.3	62.2
0.125 µg/mL	8.72	3.11	6.5	12.9
0.25 µg/mL	-4.09	-1.96	1.69	0.586
0.5 µg/mL	-4.36	-1.89	-1.53	-1.29
1 µg/mL	-6.12	-3.24	-2.39	-3.07
2 µg/mL	-6.09	-3.05	-2.94	-3.63
4 µg/mL	-5.37	-2.81	-2.55	-3.35
8 µg/mL	-5.43	-2.83	-2.7	-3
16 µg/mL	-5.22	-2.78	-2.64	-3.35
32 µg/mL	-4.99	-2.6	-2.94	-3.35
64 µg/mL	-3.84	-1.21	-1.14	-1.95

CN(C)[C@@H]1C(O)=C(C(N)=O)C(=O)[C@@]2(O)C(O)=C3C(=O)c4c(O)c(NC(=O)CN5CCCC5)cc(F)c4C[C@H]3C[C@@H]12 [eravacycline]
growth [%]
Settings	[1]	[2]	[3]	[4]
0.003125 µg/mL	92.9	93	99.5	93.5
0.00625 µg/mL	94.5	104	105	100
0.0125 µg/mL	95.7	96.4	101	88.3
0.025 µg/mL	90	105	106	102
0.05 µg/mL	91.4	88.9	97.4	85.6
0.1 µg/mL	96.7	102.4	99.4	102
0.2 µg/mL	74.7	121	84.9	112
0.4 µg/mL	1.21	4.55	37.3	42.3
0.8 µg/mL	-6.19	-3.35	0.407	0.888
1.6 µg/mL	-7.05	-4.65	-3.99	-3.06
3.2 µg/mL	-7.85	-5.75	-5.84	-6.25
6.4 µg/mL	-9.08	-6.76	-6.46	-6.82

CS(=O)(=O)c1ccc([C@@H](O)[C@H](N)CF)cc1 [florfenicol amine] + CC(=O)NC[C@H]1CN(c2ccc(N3CCOCC3)c(F)c2)C(=O)O1 [Linezolid]
growth inhibition [%], [8]
Settings	partner concentration 0.125 µg/mL	partner concentration 0.25 µg/mL	partner concentration 0.5 µg/mL	partner concentration 1 µg/mL	partner concentration 2 µg/mL	partner concentration 4 µg/mL	partner concentration 8 µg/mL	partner concentration 16 µg/mL	partner concentration 32 µg/mL	partner concentration 64 µg/mL
0.241504 µg/mL	12.8	7.44	-0.26	-7.24	-12.9	79.4	102	103.2	104	103.9
0.483008 µg/mL	9.78	8.02	0.813	-11.6	14.3	97.4	103.1	103.8	104.45	104.3
0.966016 µg/mL	-18.5	-19.4	-23.9	-21.5	64	99.7	101.3	102.4	103.6	103.9
1.93203 µg/mL	-17.2	-16.8	-10.6	11.7	93.6	102.5	102.6	103.5	103	104.5
3.86406 µg/mL	-8.64	-5.94	-0.659	50.6	97.51	103.6	103.6	103.7	104	105.2
7.72813 µg/mL	-5.01	11.8	41.4	89.42	96.2	103.9	103	104.3	104.89	104.9
15.4563 µg/mL	73.4	86.39	89.52	88.7	99.26	104.53	103	104.6	104.93	103
30.9125 µg/mL	91.17	91.79	91.84	88.73	100.6	105	104.48	104.8	104.9	105.4
61.825 µg/mL	94.06	92.7	93.31	95.37	104.5	105.26	104.54	104.5	104.7	104.7
123.65 µg/mL	100.4	100.9	101.5	103.1	104.8	105	104	103.9	104.1	104.3
